According to PubChem BioAssay AID504332 (National Center for Advancing Translational Sciences (NCATS), 2011):
Where “and” joins values, the source holds several entries; their conditions need not be identical. Identical values can stand only once. In all, about 350,000 compounds went through this assay and about 31,000 (8.9%) were called active. The shares of active, inactive and inconclusive entries below differ from those in the screen. The call rests on the fitted dose curve; in most records, active means well fitted inhibition curve with a large enough effect; inconclusive means small, poorly fitted or top-dose-only effect; inactive means no such curve, though single readings can be large or run the other way. Potencies beside an inconclusive call are fits to weak or partial responses and may not hold up.

These compounds were tested against Histone-lysine N-methyltransferase EHMT2 (Homo sapiens) (UniProt Q96KQ7) (assay: qHTS Assay for Inhibitors of Histone Lysine Methyltransferase G9a). Conditions: G9a H3K9 monomethylation, AlphaScreen, 2 h; activity, negative = inhibition: at 59 µM (top of the series) unless noted.
UniProt Q96KQ7, sequence (Q96KQ7 whole entry, looked up): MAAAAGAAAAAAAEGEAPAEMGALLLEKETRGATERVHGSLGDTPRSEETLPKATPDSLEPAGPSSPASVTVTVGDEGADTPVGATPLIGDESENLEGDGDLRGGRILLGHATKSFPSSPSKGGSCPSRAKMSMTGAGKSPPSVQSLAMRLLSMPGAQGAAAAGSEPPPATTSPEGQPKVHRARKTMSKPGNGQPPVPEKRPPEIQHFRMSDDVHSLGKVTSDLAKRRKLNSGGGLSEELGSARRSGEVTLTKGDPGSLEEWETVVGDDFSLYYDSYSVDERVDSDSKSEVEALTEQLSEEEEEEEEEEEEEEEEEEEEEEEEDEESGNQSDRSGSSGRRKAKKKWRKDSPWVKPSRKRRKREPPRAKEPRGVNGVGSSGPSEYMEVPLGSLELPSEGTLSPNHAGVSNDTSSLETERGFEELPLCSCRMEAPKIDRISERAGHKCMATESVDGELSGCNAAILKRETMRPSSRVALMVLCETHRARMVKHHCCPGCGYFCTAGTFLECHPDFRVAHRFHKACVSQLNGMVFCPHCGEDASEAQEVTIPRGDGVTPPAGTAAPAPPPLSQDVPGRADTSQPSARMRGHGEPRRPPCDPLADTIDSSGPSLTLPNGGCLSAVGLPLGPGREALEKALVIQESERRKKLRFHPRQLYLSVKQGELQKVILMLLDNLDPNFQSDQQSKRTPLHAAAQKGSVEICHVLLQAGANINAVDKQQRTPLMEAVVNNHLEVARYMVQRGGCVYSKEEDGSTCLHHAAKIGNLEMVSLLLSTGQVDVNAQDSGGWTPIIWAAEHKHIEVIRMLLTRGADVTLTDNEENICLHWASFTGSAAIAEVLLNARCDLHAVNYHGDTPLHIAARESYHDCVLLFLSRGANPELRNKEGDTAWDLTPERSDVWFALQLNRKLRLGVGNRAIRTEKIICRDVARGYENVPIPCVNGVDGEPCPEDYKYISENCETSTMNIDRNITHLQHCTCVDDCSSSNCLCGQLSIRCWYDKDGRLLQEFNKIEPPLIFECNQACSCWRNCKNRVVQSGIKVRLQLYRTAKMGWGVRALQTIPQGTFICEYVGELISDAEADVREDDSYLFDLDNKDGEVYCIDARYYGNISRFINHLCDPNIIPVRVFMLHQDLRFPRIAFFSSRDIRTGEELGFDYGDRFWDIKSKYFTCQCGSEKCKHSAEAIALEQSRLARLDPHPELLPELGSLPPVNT
How it was run: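 G9a (20 nM) preincubated 15 min RT with compounds, then 500 nM biotinylated H3K9 peptide and 20 uM SAM added; 2 h RT reaction. Monomethyl-H3K9 product detected by AlphaScreen with anti-H3K9me1 antibody, streptavidin donor and anti-rabbit IgG acceptor beads.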
Further: nearly all actives have a fitted effect of over 75% in size.
On the % scale 0 is the no-effect control and ±100 the full control effect; potency means the concentration at half of the fitted maximal effect; tags describe the fitted curve by direction and shape.

SMILES	activity, negative = inhibition	Potency
CCn1ccnc1CN(C)Cc1c(C(=O)N2CCCCCCC2)nc2ccc(Cl)cn12	inactive: -3.29% [at 102 µM]	
Cc1[nH]oc(=O)c1N=Nc1c(Cl)cccc1Cl		inconclusive: 25.1 µM [inhibitor, single point]
O=C(Nc1cccc(-c2nc3ccccc3s2)c1)C1=COCCO1		inconclusive: 25.1 µM [inhibitor, single point]
CC(C)(C)C1CCc2c(sc(NC(=O)CCC(=O)O)c2C(=O)Nc2ccccc2C(F)(F)F)C1 (stereo not drawn)		inconclusive: 25.1 µM [inhibitor, single point]
COc1cccc2c(=O)n(CC(=O)NC3CCCC3)ccc12	inactive: -1.05% [at 102 µM]	
COc1ccc(Cc2nnc(Nc3ccc(C)cc3C)[nH]c2=O)cc1	inactive: -3.71% [at 102 µM]	
Cc1ccccc1C(=O)Nc1ccc2nc(Nc3cccc(C(F)(F)F)c3)cc(C)c2c1	inactive: 1.77%	
O=[N+]([O-])c1cccc2c3c([nH]c12)CCCC3		active: 8.91 µM
O=C(Cc1ccccc1Cl)N1CCOCC1	inactive: 2.49% [at 102 µM]	
N#CCCN(CC(=O)O)S(=O)(=O)c1ccccc1		inconclusive: 1 µM [inhibitor, partial curve, poor fit]
CCOc1ccc(S(=O)(=O)c2c[nH]c3ccccc3c2=O)cc1		inactive
O=C(COC(=O)CC1SC(N2CCCC2)=NC1=O)Nc1ccc(Br)cc1 (stereo not drawn)		inconclusive: 89.1 µM [inhibitor, single point]
COc1ccc(C(=O)/C=C/Nc2ccc(S(=O)(=O)Nc3onc(C)c3C)cc2)cc1		inconclusive: 22.4 µM [inhibitor, single point]
Cc1cc(C)n(-c2ccc(C(=O)NCc3ccc4c(c3)OCO4)cc2)n1		inconclusive: 100 µM [inhibitor, single point]
Cc1cc(C(F)(F)F)nc(SCC(=O)Nc2c(C)n(C)n(-c3ccccc3)c2=O)n1	inactive: -4.34% [at 102 µM]	
CN(C)CCNC(=O)CN1C(=O)CCn2nc(-c3cn(C)c4ccccc34)cc21	inactive: -0.855%	
COc1cc2c(cc1OC)CN(C(=O)c1sc(-c3cnccn3)nc1C)CC2		inconclusive: 50.1 µM [inhibitor, partial curve]
Cc1cccc(N(Cc2ccccc2F)S(C)(=O)=O)c1		inconclusive: 20 µM [inhibitor, single point]
CCCCn1c(N)c(N(CCOC)C(=O)c2cccc(OCc3ccccc3)c2)c(=O)[nH]c1=O	inactive: -27.6% [at 102 µM]	
COC(=O)c1ccc2c(=O)n(CCCCCC(=O)N3CCN(c4cc(Cl)ccc4C)CC3)c(=O)[nH]c2c1	inactive: -2.14%	
COc1cccc(CNC(=O)c2ccc(-c3nc(CS(=O)(=O)c4ccccc4)c(C)o3)cc2)c1	inactive: -32%	
CCN1CCN(c2nc3c(c(=O)[nH]c(=O)n3C)n2CCSc2nc3ccccc3s2)CC1		inconclusive: 89.1 µM [inhibitor, single point]
Cn1c(C(=O)NCCN2CCc3ccccc3C2)cc2c(=O)[nH]c3ccccc3c21		inconclusive: 56.2 µM [inhibitor, partial curve, poor fit]

SMILES	activity, negative = inhibition	Potency
NC(=O)C1CCN(Cc2nc3ccccc3c(=O)[nH]2)CC1		inconclusive: 25.1 µM [inhibitor, single point]
CCn1c(N2CCN(CC(=O)c3c(C)n(C)c4ccc(OC)cc34)CC2)nc2c1c(=O)[nH]c(=O)n2C		inconclusive: 39.8 µM [inhibitor, single point]
Cc1ccc(OS(=O)(=O)c2ccc(N3C(=O)CCC3=O)cc2)cc1		inconclusive: 3.55 µM [inhibitor, full curve]
CC1=CN2C(=N)/C(=C/c3ccc(Sc4ccc(C)cc4)o3)C(=O)N=C2S1		active: 25.1 µM
CCN(CC)CCN(Cc1cc2cc(C)ccc2[nH]c1=O)C(=S)Nc1ccccc1		inconclusive: 50.1 µM [inhibitor, partial curve, poor fit]
CC12CCC(C/C1=N/OC(=O)c1cccc([N+](=O)[O-])c1)C2(C)C (stereo not drawn)		inconclusive: 10 µM [inhibitor, partial curve, poor fit]
O=C(O)c1cc(-c2ccco2)nc2ccc(Br)cc12		active: 28.2 µM and active: 3.55 µM
COc1ccccc1Nc1c2c(nc3ccc(NC(=O)c4cccc(OC)c4OC)cc13)CCCC2		inconclusive: 14.1 µM [inhibitor, partial curve, poor fit]
O=C(Nc1cccc(C(=O)N2CCN(c3ccccc3F)CC2)c1)c1nsc2ccccc12		inconclusive: 31.6 µM [inhibitor, partial curve, poor fit]
COC(=O)c1cc2sccc2n1Cc1nc(-c2cccc(Br)c2)oc1C		inconclusive: 15.8 µM [inhibitor, partial curve]
Cc1nnc(-c2ccc(N3CCCCCC3)c([N+](=O)[O-])c2)o1		active: 44.7 µM
CCN(CC)CCn1c(=S)[nH]c2ccc(Br)cc2c1=O		inconclusive: 25.1 µM [inhibitor, single point]
CC(C)CCNc1nc2c(S(=O)(=O)c3ccc(Br)cc3)nnn2c2ccsc12	inactive: 15.8%	
COc1c(C(=O)Nc2ccc(Cc3ccncc3)cc2)ccc2ccccc12		inconclusive: 89.1 µM [inhibitor, single point]
CCc1cc2c(cc3c(=O)n(CC(=O)N4CCN(c5cc(Cl)ccc5C)CC4)nc(CC)n32)s1	inactive: -1.08%	
Cc1cc(-n2c(C)cc(C(=O)COc3cccnc3[N+](=O)[O-])c2C)no1		active: 39.8 µM
O=c1c(-c2ccc(Cl)cc2)nc2cnc(N3CCOCC3)nc2n1Cc1ccc(F)cc1	inactive: 23.8% [at 0.501 µM]	
COc1ccc(-n2cccc2C=O)cc1OC	inactive: 16.3% [at 102 µM]	
CC(=O)N/C(=C\c1ccc(F)cc1)C(=O)NC(C(=O)O)C(C)C (stereo not drawn)		active: 56.2 µM
COc1ccc(CCNC(=O)C(=O)NCC2OCCN2S(=O)(=O)c2ccc(Cl)cc2)cc1OC (stereo not drawn)	inactive: 26.3%	
CC(C)CNC(=O)c1cccc(NC(=O)c2ccc3c(c2)C(=O)N(C)C3=O)c1		inconclusive: 0.199 µM [inhibitor, partial curve, poor fit]
COc1ccc(-c2csc(NC(=S)NC(=O)c3cc4ccccc4o3)n2)cc1Br		inconclusive: 79.4 µM [inhibitor, single point]
CC1=C(C(=O)OCc2ccccc2)C(c2ccco2)C2=C(CC(C)(C)CC2=O)N1 (stereo not drawn)		inconclusive: 70.8 µM [inhibitor, partial curve, poor fit]

SMILES	activity, negative = inhibition	Potency
Cc1c(N2C(=O)/C(=C\c3ccc(N(C)C)cc3)N(C)C2=S)c(=O)n(-c2ccccc2)n1C		active: 39.8 µM
COc1ccc(CC(=O)NCc2ccc3c(c2)OCO3)cc1	inactive: -4.19% [at 102 µM]	
CC(=O)N1CCN(C(=S)NC(=O)c2ccc(S(=O)(=O)N3CCOCC3)cc2)CC1		inconclusive: 7.08 µM [inhibitor, full curve, poor fit]
COCC(=O)N1CCC[C@@]2(CCN(Cc3nccs3)C2)C1	inactive: 1.18% [at 12.7 µM]	
CCNC(=S)N1CCC(c2nc3cc(C)c(C)cc3[nH]2)CC1		inconclusive: 79.4 µM [inhibitor, single point]
CCCCn1c(N)c(N(CCOC)C(=O)CSc2n[nH]c(-c3ccc(OC)cc3)n2)c(=O)[nH]c1=O		inconclusive: 89.1 µM [inhibitor, single point]
C=Cc1ccc(Cn2c(=O)n(-c3ccc(C)cc3)c(=O)c3c2c2cc(OC)ccc2n3C)cc1		inconclusive: 6.31 µM [inhibitor, single point]
Cc1cc(C)c(C#N)c(SCC(=O)N2CCN(Cc3ccccc3)CC2)n1	inconclusive: -62.6% [inhibitor]	
COc1ccc(OC)c(-c2ccc(C(=O)O)o2)c1		inconclusive: 31.6 µM [inhibitor, single point]
Cn1ncc(Cl)c1C(=O)NNC(=O)Nc1cccc2ccccc12		inconclusive: 89.1 µM [inhibitor, single point]
Cc1c(NC2=C(Cl)C(=O)N(c3ccccc3)C2=O)c(=O)n(-c2ccccc2)n1C		inconclusive: 10 µM [inhibitor, partial curve, poor fit]
CCc1ccc(C2=CC(c3cccc(Br)c3)n3nnnc3N2)cc1 (stereo not drawn)		inconclusive: 39.8 µM [inhibitor, single point]
CCOc1cc2c3c(c1)C(C)=CC(C)(C)N3C(=O)C2=O		inconclusive: 28.2 µM [inhibitor, single point]
C=CCn1c(O)c(N=Nc2ccccc2)c2ccccc21		inconclusive: 31.6 µM [inhibitor, single point]
CCOCCCNC(=O)c1cc(Cl)c(NC(=O)C2=C(C)OCCS2)cc1OC		inconclusive: 1.78 µM [inhibitor, partial curve, poor fit]
CC1=C(C(=O)Nc2ccc(C)cc2C)C(c2cccn2C)n2ncnc2N1 (stereo not drawn)	inactive: -5.75%	
Nc1nc2c(c(=O)[nH]1)C(c1cccc3ccccc13)C1=C(N2)c2ccccc2C1=O (stereo not drawn)		active: 35.5 µM
COc1ccc(C2CC(c3cccs3)=NN2C(=O)CSc2nc(=O)n3ccccc3n2)cc1 (stereo not drawn)		inconclusive: 1.26 µM [inhibitor, partial curve, poor fit]
Cc1cc(C(=O)Nc2cnc3ccccc3c2)ccc1[N+](=O)[O-]	inactive: -7.01% [at 102 µM]	
COc1ccc(OC)c(C2=NS(=O)(=O)N(C)C(C(=O)NCc3ccco3)=C2)c1	inactive: -5.17% [at 102 µM]	
CC(C)CC(c1nnnn1C(C)(C)C)N1CCN(Cc2ccccc2)CC1 (stereo not drawn)		inconclusive: 44.7 µM [inhibitor, partial curve]
COc1ccc(NC(=O)CSc2nc(O)c(C/C=C/c3ccccc3)c(=O)[nH]2)cc1		inconclusive: 28.2 µM [inhibitor, partial curve, poor fit]
